Measured values from PubChem BioAssay (Tox21).
Several values for one entry are separate records, joined by “and”; a condition that tells them apart may be missing. Identical values can stand only once. Inconclusive results, whose numbers are uncertain, are shown with a selection of clear calls. A potency beside an inconclusive call is a rough fit, not a confirmed value. Some structures have more than one record in an assay (separate samples or runs), and their calls can disagree. Activity calls are given as the source filed them. Unless noted, the call rests on the fitted dose curve; in most records, active means well fitted curve in the direction sought with a large enough effect in the repeat runs; inconclusive means weak or mixed curves; inactive means no such curve, though single readings can be large; an effect the other way counts as inactive or inconclusive.

Columns and labels:
[1] = qHTS assay for identifying genotoxic compounds that show differential cytotoxicity against isogenic chicken DT40 cell lines with known DNA damage response pathways - Rev3 mutant cell line (AID 743014); settings: chicken DT40 Rev3-/- viability, CellTiter-Glo, 40 h; activity, negative = cytotoxicity: at 68.4 µM (top of the series) unless noted; further: nearly all actives have a fitted effect of over 55% in size
[2] = qHTS assay to identify small molecule antagonists of the androgen receptor (AR) signaling pathway - cell viability counter screen (AID 743033; further: nearly all actives have a fitted effect of over 45% in size; on activity change, negative = cytotoxicity: on the % scale 0 is the no-effect control and ±100 the full control effect)
[3] = qHTS assay to identify small molecule antagonists of the androgen receptor (AR) signaling pathway using the MDA cell line - cell viability counter screen (AID 743041; further: nearly all actives have a fitted effect of over 45% in size; on viability change, negative = cytotoxic: on the % scale 0 is the no-effect control and ±100 the full control effect); settings: MDA-kb2 viability, CellTiter-Fluor, 16 h, cells co-treated with R1881 androgen agonist; viability change, negative = cytotoxic: at 70.3 µM (top of the series) unless noted
Outline: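 In this qHTS counter assay, fluorescence intensity after CellTiter-Fluor addition indicated viability of MDA-kb2 AR-luc cells given compounds and R1881 for 16 h at 37C.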

[4] = qHTS assay to identify small molecule antagonists of the thyroid receptor (TR) signaling pathway - cell viability counter screen (AID 743064); settings: GH3.TRE-Luc viability, CellTiter-Fluor, 24 h; activity change, negative = cytotoxic: at 70.3 µM (top of the series) unless noted; further: nearly all actives have a fitted effect of over 50% in size; on activity change, negative = cytotoxic: on the % scale 0 is the no-effect control and ±100 the full control effect
Outline: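 Same-well viability check: GH3.TRE-Luc cells stimulated with 1 nM T3 alongside test compound for 23.5 h, followed by CellTiter-Fluor fluorescence.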

[5] = qHTS assay to identify small molecule antagonists of the thyroid receptor (TR) signaling pathway (AID 743065); further: nearly all actives have a fitted effect of over 55% in size
Outline: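 GH3.TRE-Luc rat pituitary cells carrying two TR response elements driving luciferase were plated for 4 h, given compound plus 1 nM T3 (final), and incubated 23.5 h at 37 C. ONE-Glo luminescence measured reporter inhibition; CellTiter-Fluor fluorescence tracked cytotoxicity.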

[6] = target: Androgen receptor (Homo sapiens) (UniProt P10275); assay: qHTS assay to identify small molecule antagonists of the androgen receptor (AR) signaling pathway (AID 743035; active means well fitted inhibition curve with a large enough effect in the signal ratio in the repeat runs, not every such curve was filed as active; inconclusive means weak or mixed curves, or effect the other way; inactive means no such curve, though single readings can be large or run the other way; the % refers to the signal ratio); settings: HEK293 AR-UAS-bla, R1881-stimulated, beta-lactamase FRET, 16 h; activity change, negative = inhibition: at 58.5 µM (top of the series) unless noted
Outline: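 AR-bla HEK293 reporter cells; 4 h settle at 37C/5% CO2; compound + R1881 agonist, 16 h at 37C; LiveBLAzer B/G FRET substrate 2 h RT; fluorescence intensity read. qHTS format.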

[7] = target: Androgen receptor (Homo sapiens) (UniProt P10275); assay: qHTS assay to identify small molecule agonists of the androgen receptor (AR) signaling pathway (AID 743036; active means well fitted activation curve with a large enough effect in the signal ratio in the repeat runs, with a control signal flat, not every such curve was filed as active; inconclusive means weak or mixed curves, or effect the other way; inactive means no such curve, though single readings can be large or run the other way; the % refers to the signal ratio; on activation: on the % scale 0 is the no-effect control and ±100 the full control effect); settings: HEK293 AR-UAS-bla GripTite, beta-lactamase FRET ratio, 16 h; activation: at 62.4 µM (top of the series) unless noted
Outline: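 Agonist activity was scored by beta-lactamase reporter fluorescence in stably transfected HEK293 cells exposed to compounds for 16 h at 37C and 5% CO2. Substrate loading took 2 h at room temperature.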

[8] = target: Androgen receptor (Homo sapiens) (UniProt P10275); assay: qHTS assay to identify small molecule antagonists of the androgen receptor (AR) signaling pathway using the MDA cell line (AID 743042; further: nearly all actives have a fitted effect of over 55% in size)
Outline: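 MDA-kb2 cells (human breast carcinoma, stably carrying an MMTV-luciferase reporter responsive to AR and GR) were plated at 3,000 cells/well and preincubated 5 hr at 37C, then given compound plus R1881 agonist for 16 h. ONE-Glo luminescence was read.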

[9] = target: Androgen receptor (Homo sapiens) (UniProt P10275); assay: qHTS assay to identify small molecule agonists of the androgen receptor (AR) signaling pathway using the MDA cell line (AID 743040; further: nearly all actives have a fitted effect of over 20% in size); settings: MDA-kb2 AR-luc cells, MMTV luciferase, 16 h; activity change: at 70.3 µM (top of the series), stronger effect = higher value
Outline: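 Cell-based luciferase reporter: MDA-kb2, MMTV promoter (AR + GR response elements). 16 h compound exposure at 37C; ONE-Glo, 30 min RT, luminescence.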

[10] = qHTS assay for identifying genotoxic compounds that show differential cytotoxicity against isogenic chicken DT40 cell lines with known DNA damage response pathways - Rad54/Ku70 mutant cell line (AID 743015); settings: DT40 Rad54/Ku70 mutant viability, CellTiter-Glo, 40 h; activity change, negative = cytotoxicity: at 66.8 µM (top of the series) unless noted; further: nearly all actives have a fitted effect of over 60% in size
Potency means the concentration at half of the fitted maximal effect; tags describe the fitted curve by direction and shape or compound fluorescence and quenching.

UniProt P10275, sequence (P10275 whole entry, looked up): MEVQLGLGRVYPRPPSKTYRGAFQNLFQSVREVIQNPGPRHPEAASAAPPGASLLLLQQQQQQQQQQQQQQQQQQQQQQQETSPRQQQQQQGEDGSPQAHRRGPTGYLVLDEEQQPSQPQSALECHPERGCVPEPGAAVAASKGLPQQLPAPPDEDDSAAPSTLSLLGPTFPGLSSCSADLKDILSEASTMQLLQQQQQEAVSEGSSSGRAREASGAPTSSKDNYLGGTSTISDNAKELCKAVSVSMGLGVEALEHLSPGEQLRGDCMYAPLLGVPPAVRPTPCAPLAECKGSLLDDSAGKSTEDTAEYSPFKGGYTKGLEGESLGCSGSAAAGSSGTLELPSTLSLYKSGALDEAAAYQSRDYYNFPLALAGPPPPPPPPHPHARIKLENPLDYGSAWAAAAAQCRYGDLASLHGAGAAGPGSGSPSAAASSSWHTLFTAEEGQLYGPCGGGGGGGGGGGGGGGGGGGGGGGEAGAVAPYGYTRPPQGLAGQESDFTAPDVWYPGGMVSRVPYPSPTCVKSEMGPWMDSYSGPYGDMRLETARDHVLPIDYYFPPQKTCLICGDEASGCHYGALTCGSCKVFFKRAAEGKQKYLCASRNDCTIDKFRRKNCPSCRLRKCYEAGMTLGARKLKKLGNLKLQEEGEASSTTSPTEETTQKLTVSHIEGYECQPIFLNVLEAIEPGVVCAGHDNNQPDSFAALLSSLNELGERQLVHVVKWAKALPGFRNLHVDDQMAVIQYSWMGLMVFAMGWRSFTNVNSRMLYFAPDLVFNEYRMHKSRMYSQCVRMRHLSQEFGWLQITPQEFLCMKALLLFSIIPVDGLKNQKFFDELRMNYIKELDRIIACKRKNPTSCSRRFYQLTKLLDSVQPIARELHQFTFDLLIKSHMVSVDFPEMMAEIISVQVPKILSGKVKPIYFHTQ

Cc1c(C)n(Cc2ccccc2)c2ccc(C(=O)OCCN(C)C)cc12
Potency [1]: active: 3.76 µM
Potency [2]: inconclusive: 21.3 µM [cytotoxic, partial curve]
Potency [3]: inconclusive: 33.5 µM [cytotoxic, single point]
Potency [4]: active: 7.5 µM

CC(C)(C)NC(=O)[C@@H]1C[C@@H]2CCCC[C@@H]2CN1C[C@@H](O)[C@H](Cc1ccccc1)NC(=O)[C@H](CC(N)=O)NC(=O)c1ccc2ccccc2n1
Potency [1]: inconclusive: 69.5 µM [cytotoxic]
Potency [2]: inconclusive: 15.1 µM [cytotoxic, partial curve] and active: 49.6 µM
Potency [3]: inconclusive: 31.2 µM [cytotoxic, single point] and inconclusive: 69.5 µM [cytotoxic, single point]
Potency [5]: active: 21.1 µM and active: 31 µM

CCc1cc(Cc2cc(CC)cc(C(C)(C)C)c2O)c(O)c(C(C)(C)C)c1
Potency [1]: active: 19.3 µM
Potency [2]: active: 24.5 µM
Potency [6]: active: 13.8 µM
Potency [7]: inconclusive: 38.9 µM [cytotoxic, partial curve]
Potency [8]: inconclusive: 48.6 µM [inhibitor, partial curve, poor fit]
Potency [4]: active: 7.7 µM

CCCCCCCCCCCCN
Potency [1]: active: 21.7 µM
Potency [2]: active: 54.9 µM
Potency [4]: inactive and active: 24.3 µM

C=CC(=O)OCCOCCOCCOCCOC(=O)C=C
Potency [1]: active: 8.68 µM and active: 6.06 µM
Potency [2]: active: 24.7 µM and inconclusive: 43.2 µM [cytotoxic, partial curve, poor fit]
Potency [3]: inconclusive: 54.8 µM [cytotoxic, partial curve] and active: 30.4 µM

CC(=O)O[C@]1(C(C)=O)CC[C@H]2[C@@H]3C[C@H](C)C4=CC(=O)CC[C@]4(C)[C@H]3CC[C@@]21C
Potency [1]: active: 3.76 µM and active: 4.85 µM
Potency [2]: inconclusive: 4.8 nM [cytotoxic, full curve] and inconclusive: 38.9 µM [cytotoxic, partial curve]

Oc1ccc(-c2ccccc2)c(Cl)c1
Potency [1]: active: 30.6 µM
Potency [2]: inconclusive: 34.7 µM [cytotoxic, partial curve, poor fit]
Potency [6]: inconclusive: 9.77 µM [rising, full curve, poor fit]
Potency [9]: active: 68.6 µM
Potency [4]: inactive

CN(C)C(=S)SC(=S)N(C)C
Potency [1]: active: 1.19 µM and active: 886 nM and active: 96.9 nM
Potency [2]: active: 7.56 µM and active: 1.42 µM and active: 2.75 µM
Potency [3]: active: 6.99 µM and active: 6.27 µM and active: 1.22 µM
Potency [4]: active: 2.11 µM and active: 1.98 µM and active: 433 nM

C#C[C@]1(O)CC[C@H]2[C@@H]3CCC4=CC(=O)CC[C@@H]4[C@H]3CC[C@@]21CC
Potency [1]: inconclusive: 21.7 µM [cytotoxic, partial curve, poor fit]
Potency [2]: inactive
Potency [3]: inactive
Potency [5]: inconclusive: 11.9 µM [inhibitor, full curve] and inconclusive: 6.13 µM [inhibitor, full curve] and inconclusive: 9.69 µM [inhibitor, full curve]

Nc1ccc(N)c2ccccc12
Potency [1]: active: 5.44 µM
Potency [2]: active: 12.3 µM
Potency [6]: inconclusive: 17.4 µM [rising, full curve]
Potency [7]: inactive
Potency [3]: active: 43.2 µM

C[C@H]1O[C@@H](O[C@H]2CC[C@@]3(C)[C@H](CC[C@@H]4[C@@H]3C[C@@H](O)[C@]3(C)[C@@H](C5=CC(=O)OC5)CC[C@]43O)C2)C[C@H](O)[C@@H]1O[C@H]1C[C@H](O)[C@H](O[C@H]2C[C@H](O)[C@H](O[C@@H]3O[C@H](CO)[C@@H](O)[C@H](O)[C@H]3O)[C@@H](C)O2)[C@@H](C)O1
Potency [9]: inconclusive: 0.668 µM [activator, full curve]
Potency [8]: inconclusive: 11.9 µM [inhibitor, partial curve]

OCCN1CCN(CC/C=C2/c3ccccc3Sc3ccc(C(F)(F)F)cc32)CC1
Potency [8]: inconclusive: 33.5 µM [inhibitor, single point]

Cc1cc(O)c(C(C)(C)C)cc1C(C)(C)C
Potency [10]: active: 13.7 µM
Potency [2]: active: 21.9 µM
Potency [6]: inconclusive: 54.9 µM [falling, single point]
activation [7]: inconclusive: 28.8%
Potency [4]: active: 24.3 µM
Potency [5]: active: 21.7 µM

CC(C)(C)c1ccc(C(=O)CCCN2CCC(OC(c3ccccc3)c3ccccc3)CC2)cc1
Potency [10]: active: 5.96 µM
Potency [4]: active: 11.9 µM

BrC1CCC(Br)C(Br)CCC(Br)C(Br)CCC1Br (stereo not given)
Potency [10]: active: 25.9 µM
Potency [2]: inconclusive: 15.4 µM [cytotoxic]
Potency [6]: inconclusive: 46.5 µM [falling, single point]
Potency [8]: inconclusive: 58 µM [inhibitor, single point]
Potency [4]: active: 5.43 µM and active: 20.6 µM

Nc1ccc(O)c(C(=O)O)c1
Potency [10]: inactive
Potency [4]: inconclusive: 0.0021 µM [rising, full curve, poor fit]

CN1CCN(CCCN2c3ccccc3Sc3ccc(Cl)cc32)CC1
Potency [10]: active: 8.41 µM
Potency [3]: inconclusive: 33.5 µM [cytotoxic, single point]

CCCOc1sc(C(=O)N2CCC(c3cc(CN)ccc3F)CC2)c(C)c1Br
Potency [10]: active: 14.1 µM
Potency [2]: active: 20 µM
Potency [6]: inconclusive: 50.4 µM
Potency [7]: inconclusive: 50.4 µM
Potency [3]: active: 49.9 µM
Potency [8]: active: 44.5 µM
Potency [4]: active: 6.28 µM

CCCCCC#CC(=O)OC
Potency [10]: inconclusive: 61.1 µM [cytotoxic, partial curve]
Potency [4]: inconclusive: 15.4 µM [rising, full curve, poor fit]

Cc1ccc(S(=O)(=O)Oc2ccc(N=Nc3ccc(-c4ccc(N=Nc5c(O)ccc6cc(S(=O)(=O)O)cc(S(=O)(=O)O)c56)c(C)c4)cc3C)cc2)cc1
Potency [10]: active: 54.7 µM and active: 11.2 µM
Potency [2]: inconclusive: 7.15 µM [cytotoxic, partial curve, poor fit]
activation [7]: inconclusive: -4.22% [at 79.1 µM]
Potency [3]: active: 54.7 µM and active: 35.5 µM
Potency [8]: inconclusive: 30.8 µM [inhibitor, partial curve] and inconclusive: 31.6 µM [inhibitor, partial curve]
Potency [5]: inconclusive: 6.31 µM [inhibitor, partial curve, poor fit]

COc1ccc2nc(S(=O)Cc3ncc(C)c(OC)c3C)[nH]c2c1 (stereo not given)
Potency [10]: inconclusive: 27 µM [cytotoxic, partial curve, poor fit]
Potency [2]: inconclusive: 48.4 µM [cytotoxic, partial curve, poor fit]
Potency [3]: inconclusive: 33.5 µM [cytotoxic, single point]

CC(C)(C)NC(=O)[C@H]1CC[C@H]2[C@@H]3CC[C@H]4NC(=O)C=C[C@]4(C)[C@H]3CC[C@]12C
Potency [10]: inconclusive: 67.8 µM [cytotoxic, single point] and active: 68.6 µM
Potency [2]: inconclusive: 0.644 µM [cytotoxic, full curve, poor fit]
Potency [4]: inconclusive: 68.6 µM [rising, single point]

Nc1ccc(Nc2ccccc2)cc1
Potency [10]: inconclusive: 67.8 µM [cytotoxic]
Potency [3]: inconclusive: 61.1 µM [cytotoxic, single point]

c1ccc2[nH]ccc2c1
Potency [10]: inactive
Potency [2]: inactive
Potency [6]: inactive
Potency [7]: inactive
Potency [4]: inconclusive: 30.6 µM [rising, single point]

COc1ccc(C(Cl)=C(c2ccc(OC)cc2)c2ccc(OC)cc2)cc1
Potency [10]: active: 26.6 µM and active: 60.8 µM and active: 24.3 µM
Potency [4]: inconclusive: 10.8 µM [cytotoxic, full curve] and inconclusive: 21.7 µM [cytotoxic, partial curve]

Cc1cc(Nc2ccc(O)cc2)ccc1N
Potency [10]: active: 13.6 µM
Potency [3]: inconclusive: 60.8 µM [cytotoxic]

N=C1N=C(N)c2cc3ccccc3cc21
Potency [10]: active: 27.3 µM
Potency [2]: inconclusive: 15.5 µM [cytotoxic]
Potency [4]: active: 12.9 µM

CCCC(c1cc(C(C)(C)C)c(O)cc1C)c1cc(C(C)(C)C)c(O)cc1C
Potency [10]: active: 12.3 µM
Potency [2]: active: 22.1 µM
Potency [3]: active: 27.6 µM
Potency [4]: active: 3.9 µM

CCCCC(CC)COC(=O)c1ccc(O)cc1 (stereo not given)
Potency [10]: inconclusive: 24.2 µM [cytotoxic, single point]
Potency [4]: inconclusive: 68.3 µM [cytotoxic, single point] and inconclusive: 68.6 µM [cytotoxic, single point]
Potency [5]: inconclusive: 30.5 µM [inhibitor, single point] and inconclusive: 68.6 µM [inhibitor, single point]

Cc1cc(C(C)(C)C)c(O)c(C(C)(C)C)c1
Potency [10]: inactive and active: 27.3 µM
Potency [4]: inconclusive: 33.5 µM [cytotoxic, single point] and inconclusive: 68.7 µM [cytotoxic, single point]
Potency [5]: inconclusive: 33.5 µM [inhibitor, single point] and inconclusive: 68.7 µM [inhibitor, single point]
